The list shows a part of the results. Rule as the data show it: active = 3.2 or more and inactive = the rest. Only a few entries rise above the background.
How the values were obtained:
Assay in all cases: enrichment score (SH2-bound / input frequency) (ratio); bacterial display of known human phosphotyrosine sites (pTyr-Var adds point mutants) read by sequencing; higher = stronger binding; tyrosines were phosphorylated by kinases first
Conditions in all cases: peptide library: Human pTyr
SHP2 C-SH2 domain E139D = target: SHP2 C-SH2 domain E139D
[1] = target: SHP2 C-SH2 domain wild-type
SHP2 N-SH2 domain L43F = target: SHP2 N-SH2 domain L43F
SHP2 N-SH2 domain T42A = target: SHP2 N-SH2 domain T42A
SHP2 N-SH2 domain T52S = target: SHP2 N-SH2 domain T52S
[2] = target: SHP2 N-SH2 domain wild-type

Measured: enrichment score
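Also: displayed peptides selected on beads carrying the immobilized SH2 domain, with library peptides lacking any tyrosine serving as negative controls.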

AVPEGHEYYRVREDG [TYK2_HUMAN_1054]
inactive: SHP2 C-SH2 domain E139D 1.15 | [1] 0.815 | SHP2 N-SH2 domain L43F 0.76 | SHP2 N-SH2 domain T42A 0.941 | SHP2 N-SH2 domain T52S 0.854 | [2] 0.815

KIASGDAYRQGCASK [TYRO3_HUMAN_686_YA]
inactive: SHP2 C-SH2 domain E139D 1.14 | [1] 0.897 | SHP2 N-SH2 domain L43F 0.9 | SHP2 N-SH2 domain T42A 1.03 | SHP2 N-SH2 domain T52S 1.05 | [2] 0.989

GTTEEMKYVLGQLVG [TTK_HUMAN_811]
inactive: SHP2 C-SH2 domain E139D 0.79 | [1] 0.565 | SHP2 N-SH2 domain L43F 0.743 | SHP2 N-SH2 domain T42A 0.532 | SHP2 N-SH2 domain T52S 0.614 | [2] 0.6

MEGKRSPYAGLQLGA [TRI29_HUMAN_106]
inactive: SHP2 C-SH2 domain E139D 0.873 | [1] 1.79 | SHP2 N-SH2 domain L43F 0.58 | SHP2 N-SH2 domain T42A 1.4 | SHP2 N-SH2 domain T52S 0.816 | [2] 0.837

ELTADFLYEEVHPKQ [TWF1_HUMAN_309]
inactive: SHP2 C-SH2 domain E139D 0.804 | [1] 0.889 | SHP2 N-SH2 domain L43F 0.861 | SHP2 N-SH2 domain T42A 0.595 | SHP2 N-SH2 domain T52S 0.791 | [2] 1.08

APGPQDIYDVPPVRG [BCAR1_HUMAN_249]
inactive: SHP2 C-SH2 domain E139D 0.591 | [1] 0.568 | SHP2 N-SH2 domain L43F 0.713 | SHP2 N-SH2 domain T42A 0.639 | SHP2 N-SH2 domain T52S 0.403 | [2] 0.43

SVTAPSPYAQPSSTF [TP63_HUMAN_149]
inactive: SHP2 C-SH2 domain E139D 0.609 | [1] 0.435 | SHP2 N-SH2 domain L43F 0.604 | SHP2 N-SH2 domain T42A 0.524 | SHP2 N-SH2 domain T52S 0.527 | [2] 0.533

VPEGHEYYRVREDGD [TYK2_HUMAN_1055]
inactive: SHP2 C-SH2 domain E139D 1.3 | [1] 1.07 | SHP2 N-SH2 domain L43F 0.824 | SHP2 N-SH2 domain T42A 1.06 | SHP2 N-SH2 domain T52S 1.1 | [2] 1.61

KDNFDSFYSEVAELG [TRIO_HUMAN_2796]
inactive: SHP2 C-SH2 domain E139D 0.85 | [1] 0.602 | SHP2 N-SH2 domain L43F 0.593 | SHP2 N-SH2 domain T42A 0.802 | SHP2 N-SH2 domain T52S 0.754 | [2] 0.494

FGLSRKIYSGDYYRQ [TYRO3_HUMAN_681]
inactive: SHP2 C-SH2 domain E139D 1.25 | [1] 1.15 | SHP2 N-SH2 domain L43F 1.24 | SHP2 N-SH2 domain T42A 1.12 | SHP2 N-SH2 domain T52S 1.32 | [2] 1.24

DDLEDEVYAQKMKYK [TPM2_HUMAN_261]
inactive: SHP2 C-SH2 domain E139D 1.18 | [1] 1.02 | SHP2 N-SH2 domain L43F 1.26 | SHP2 N-SH2 domain T42A 1.39 | SHP2 N-SH2 domain T52S 1.09 | [2] 1.49

KIQVKALYDFLPREP [TXK_HUMAN_91]
inactive: SHP2 C-SH2 domain E139D 1.15 | [1] 0.854 | SHP2 N-SH2 domain L43F 0.604 | SHP2 N-SH2 domain T42A 0.761 | SHP2 N-SH2 domain T52S 0.962 | [2] 0.756

AKMLDHEYTTKEIFR [TOP1_HUMAN_268]
inactive: SHP2 C-SH2 domain E139D 0.803 | [1] 0.849 | SHP2 N-SH2 domain L43F 0.741 | SHP2 N-SH2 domain T42A 0.804 | SHP2 N-SH2 domain T52S 0.958 | [2] 0.743

AEDSEIRYLSADSGD [TTF1_HUMAN_476]
inactive: SHP2 C-SH2 domain E139D 1.16 | [1] 1.76 | SHP2 N-SH2 domain L43F 1.08 | SHP2 N-SH2 domain T42A 1.09 | SHP2 N-SH2 domain T52S 1.02 | [2] 1.13

DPGKNETYQYYGFSH [TRPV4_HUMAN_805]
inactive: SHP2 C-SH2 domain E139D 0.822 | [1] 1.23 | SHP2 N-SH2 domain L43F 0.811 | SHP2 N-SH2 domain T42A 0.939 | SHP2 N-SH2 domain T52S 0.672 | [2] 0.648

DDLEDEVYAQKMKAK [TPM2_HUMAN_261_YA]
inactive: SHP2 C-SH2 domain E139D 1.01 | [1] 0.818 | SHP2 N-SH2 domain L43F 1.04 | SHP2 N-SH2 domain T42A 0.908 | SHP2 N-SH2 domain T52S 1.03 | [2] 1.01

DDLEDELYAQKLKYK [TPM1_HUMAN_261]
inactive: SHP2 C-SH2 domain E139D 1.02 | [1] 1.1 | SHP2 N-SH2 domain L43F 1.01 | SHP2 N-SH2 domain T42A 0.78 | SHP2 N-SH2 domain T52S 0.942 | [2] 0.847

SASQDPLYINIERAE [TYRO3_HUMAN_804]
inactive: SHP2 C-SH2 domain E139D 1.04 | [1] 0.777 | SHP2 N-SH2 domain L43F 0.814 | SHP2 N-SH2 domain T42A 0.789 | SHP2 N-SH2 domain T52S 1.16 | [2] 1.03
